The full ranking holds about 33,000 sequences; the median of “E-score (-0.5 to 0.5)” is about -0.035, and the highest 2% start at about 0.34. The list shows a part of the results.
biological target: T1, Mot3 (UniProt P54785); assay: PBM E-score (8-mer binding enrichment) (E-score (-0.5 to 0.5)); higher = stronger / more preferred TF binding; most listed sequences are background and not binding sites; conditions: protein concentration: 200 nM; construct: GST-full length
T1 sequence: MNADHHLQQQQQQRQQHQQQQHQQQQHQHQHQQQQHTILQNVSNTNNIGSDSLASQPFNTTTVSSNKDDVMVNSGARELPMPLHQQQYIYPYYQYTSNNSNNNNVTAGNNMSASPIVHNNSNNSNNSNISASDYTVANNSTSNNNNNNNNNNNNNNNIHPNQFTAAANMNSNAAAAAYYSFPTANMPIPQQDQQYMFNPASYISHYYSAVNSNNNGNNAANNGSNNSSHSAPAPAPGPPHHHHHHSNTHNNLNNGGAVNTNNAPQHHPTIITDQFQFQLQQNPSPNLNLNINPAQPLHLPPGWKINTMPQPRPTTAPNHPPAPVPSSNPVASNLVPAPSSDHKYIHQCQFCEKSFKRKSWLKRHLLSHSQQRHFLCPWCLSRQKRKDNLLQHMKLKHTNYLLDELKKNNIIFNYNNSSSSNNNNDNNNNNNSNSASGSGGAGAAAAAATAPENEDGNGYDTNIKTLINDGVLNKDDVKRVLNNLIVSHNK
Outline: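 Universal all-10-mer Agilent arrays, fresh or stripped once, were converted to double-stranded form by primer extension. GST-tagged yeast transcription factors from PURExpress in vitro transcription/translation, full-length or DNA-binding domain only, were applied at about 100-200 nM and detected with fluorescent anti-GST. After masliner normalisation, the Universal PBM Analysis Suite scored each ungapped eight-base word together with its reverse complement by E-score.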

Row | Sequence | PBM E-score
1 | AACCGGAG | -0.148
2 | CTGCAAAG | -0.0192
3 | GGGGAGCA | -0.194
4 | CTGCCCAG | -0.273
5 | CCAGTTAG | -0.105
6 | CTGCTTAA | -0.0304
7 | GGCTAGAC | -0.167
8 | CGGCAACG | -0.0123
9 | CTGAAGTA | -0.0784
10 | ACAACGTG | 0.114
11 | CAGCTAAG | -0.268
12 | GCAGAGGA | -0.193
13 | ACAGTGGC | -0.105
14 | GGGCTGGA | -0.274
15 | CGTTCAAG | -0.00663
16 | TCCCATAA | -0.133
17 | AACACAGT | 0.189
18 | CAGTAACG | 0.0227
19 | TACCTCGA | -0.151
20 | AGGTGCTC | -0.0148
21 | ACAGTTGC | 0.0235
22 | ATTTACCA | 0.129
23 | CCGCTTCC | -0.263
24 | CCACTTAA | 0.0289
25 | AGCCCCAC | -0.334

Row | Sequence | PBM E-score
26 | AAACTCGC | -0.0638
27 | AAGAGATC | -0.285
28 | CATCTACG | 0.0929
29 | CGGAGCTA | -0.11
30 | AGGTGGCA | -0.15
31 | TATGCCAA | -0.023
32 | CCGGTGAA | -0.171
33 | AGTGGAGC | 0.0294
34 | ATAAATCA | 0.126
35 | GCATTAGA | -0.0607
36 | CCCTGCAC | -0.0117
37 | GCGCCGAC | -0.0194
38 | AACTTGAC | 0.143
39 | CTACGGAA | 0.24
40 | GATACCGA | -0.101
41 | GAGAGTAC | -0.0493
42 | GGATACCA | -0.254
43 | AAAGCCTC | -0.219
44 | AAGGTCGT | -0.0904
45 | AGGGAGTC | -0.213
46 | CCCAACGG | -0.114
47 | AACCGCAT | -0.0444
48 | ATCGCGAC | -0.319
49 | AGTTCGCA | -0.202
50 | CGAAGGCG | 0.193

Row | Sequence | PBM E-score
51 | GTGTCATA | 0.28
52 | ATCTAACC | 0.00779
53 | AGAGGACA | -0.136
54 | ATGACAAA | 0.0395
55 | CGAGCTAG | -0.0166
56 | CGTTTAAC | 0.269
57 | ACTAAACT | 0.0611
58 | AATTGGCT | -0.126
59 | ACCCGTTC | -0.0969
60 | AAGCCACC | -0.228
61 | CCTGAGAG | -0.194
62 | ATAGTTAA | -0.018
63 | CGCCGGTC | -0.33
64 | CCGAGCCC | -0.481
65 | CGAAGCGC | -0.16
66 | TACTCTCA | 0.0866
67 | GACAGCTC | -0.162
68 | GAAAGGAC | -0.118
69 | GTTGAGCA | 0.00541
70 | GATTGTGA | -0.122
71 | CGAAAGGC | 0.0515
72 | GCGGCAGA | -0.273
73 | GACAGGCC | -0.139
74 | TGGTCTAA | -0.173
75 | CTACTGTA | 0.171

Row | Sequence | PBM E-score
76 | CCCTACCA | 0.0295
77 | AAAATTGA | 0.147
78 | AGTTTGCC | 0.289
79 | AAATAGGA | 0.135
80 | AGAGGGTA | -0.167
81 | AACTGCTG | -0.174
82 | CGCAGCCG | -0.217
83 | CCGTTCTC | -0.133
84 | CGCTCAAA | -0.108
85 | CACTGACG | -0.206
86 | GATAATTA | 0.179
87 | CAGAACTA | -0.283
88 | CCCAACCC | -0.0962
89 | ACGCCACT | -0.132
90 | TAAGCGGA | -0.212
91 | CGTTAGCC | -0.189
92 | ATCCAATA | 0.037
93 | AGCTACCG | -0.31
94 | AGTGTACG | 0.0928
95 | TATAAACA | 0.275
96 | CGCTGACG | -0.191
97 | TATGTGCA | 0.0728
98 | GTACCCTA | 0.0479
99 | AACGTCTT | 0.0441
100 | GCATCAGA | 0.104

Row | Sequence | PBM E-score
101 | ACGAAACA | 0.0944
102 | AAATTAAA | 0.185
103 | ACTGGCCA | -0.156
104 | GTCTCCGA | -0.114
105 | AATCTGCC | 0.0326
106 | GTCTGCCA | -0.121
107 | CCCCGGAG | -0.242
108 | GTCACAAA | 0.0523
109 | AATTCTCT | -0.106
110 | AAGGCGCT | 0.353
111 | CGCTGCAA | -0.00707
112 | CAGTTTGA | -0.133
113 | ACACCTGT | 0.193
114 | GCCGCTCC | -0.323
115 | CCTCAATC | -0.0484
116 | ACATAATA | 0.294
117 | GTGGGTGA | -0.227
118 | GAAACCGA | -0.249
119 | ACTGATGA | -0.00185
120 | GAATAGAC | 0.00211
121 | CCAAAAGG | 0.0302
122 | GTTGATCA | 0.0347
123 | AGCGTGTA | 0.406
124 | ACAGTGTG | 0.0607
125 | AATCTAGG | 0.111

Row | Sequence | PBM E-score
126 | CTGATCAA | -0.217
127 | CATCGGAG | -0.0997
128 | CCAGCAGA | -0.212
129 | CTGCAAGC | -0.113
130 | AATTCAGA | -0.0646
131 | CGACAAAC | -0.164
132 | CAGATCTG | -0.0505
133 | AATTAAGT | 0.143
134 | GGCACGAA | 0.271
135 | ACTGGAGC | -0.149
136 | CGTCGTAC | 0.0607
137 | CAAAAGCG | -0.0671
138 | ACAAAACT | 0.135
139 | GGAATTCA | 0.0511
140 | CAATGCTG | 0.0016
141 | GGAGTACA | 0.0176
142 | CTTGGCAA | -0.145
143 | CACGGGGG | -0.0235
144 | TGACCTCA | -0.244
145 | CGAAAGCG | -0.168
146 | AGTTGGTA | 0.0935
147 | GCGACCCC | 0.00965
148 | ACTTGGCG | 0.00484
149 | AACTCAAG | -0.0609
150 | ACCAGAGC | -0.166

Row | Sequence | PBM E-score
151 | AAGAATAG | -0.00364
152 | AATGGAAC | -0.00324
153 | ATCTCATG | 0.118
154 | CCTTGTCG | 0.0061
155 | GGGACATA | -0.153
156 | AGGGCTCC | -0.248
157 | AAACTTCG | 0.0118
158 | AACAGACG | 0.039
159 | GCAAAGAC | -0.122
160 | ACAATAGT | 0.109
161 | AAGAATAA | 0.116
162 | ACATCGGC | 0.0326
163 | GCATTCAC | 0.0735
164 | AAGGAGCT | 0.0272
165 | CTACATGC | 0.355
166 | GTCGTATA | 0.0301
167 | AATGCCAC | -0.227
168 | ATCTGGCA | 0.0111
169 | CCAGACGA | -0.133
170 | ACGGCAAG | -0.116
171 | ACTTGGAA | 0.0328
172 | CTACTCAA | 0.219

Source: the supplement of paper PMC3334620
